# According to the supplement of paper PMC3334620:
# Over roughly 33,000 sequences, “E-score (-0.5 to 0.5)” has its median near -0.016; the highest 2% begin near 0.31. The list shows a part of the results.
# Target: Cst6 (UniProt P40535)
# Assay: PBM E-score (8-mer binding enrichment) (E-score (-0.5 to 0.5)); higher = stronger / more preferred TF binding; most listed sequences are background and not binding sites
# Conditions: protein concentration: 200 nM; construct: GST-DNA-binding domain
# Method in brief: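 PURExpress in vitro transcription/translation supplied GST-tagged yeast transcription factors, either full-length or DNA-binding domain. Applied at about 100-200 nM to universal all-10-mer Agilent arrays double-stranded by primer extension, the bound protein was detected with fluorescent anti-GST. E-scores, modified Wilcoxon-Mann-Whitney statistics, were given by the Universal PBM Analysis Suite to ungapped eight-base words pooled with their reverse complements after masliner normalisation.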
row,Sequence,PBM E-score
1,CCGCCTAA,-0.129
2,GCTGCCGA,-0.164
3,GTACTCTA,-0.034
4,ACAACGCT,0.049
5,AGTAGGTA,-0.0379
6,CTTTCGCC,-0.115
7,GAACACTC,-0.0006
8,GATCGAAA,0.172
9,GAAGATTC,0.0408
10,AAGAGTTC,-0.23
11,GAAAGTTC,-0.0721
12,ATAAGGTA,-0.0528
13,TCCTTCGA,-0.0595
14,ATACTAGC,-0.052
15,GATGACTA,0.171
16,CAATGTAC,-0.0829
17,GGATCAAC,0.0971
18,GATTTCCC,0.0776
19,CGGCTAAC,0.0272
20,ATTAGGAA,-0.0086
21,AACGTTAA,0.0396
22,AGCGGACT,-0.293
23,GAATGTAC,0.0611
24,CCCCATTA,-0.257
25,ATTTACAC,0.149

row,Sequence,PBM E-score
1,CCGGCCAG,-0.171
2,AGATCTTC,0.044
3,GATAGAAC,0.05
4,ATTGCTGA,0.165
5,ATCCGGAC,-0.148
6,CTGTAATA,0.108
7,ATAAAAAT,0.232
8,CCCGGGGA,-0.274
9,CTCGAGCC,-0.0674
10,AAGAACGC,0.145
11,ATTGGTTG,0.00462
12,CGCTATCA,-0.00554
13,GGATCGAA,-0.0656
14,CAACCGTA,-0.103
15,AAATAGCG,-0.0241
16,GACGCACC,0.159
17,CAAAACTA,0.225
18,AAGCTGCC,-0.0555
19,AATCCTCA,-0.0539
20,ACCTTGTA,0.0757
21,CACGAAAA,0.247
22,GATCCCTA,-0.19
23,GTCGGTGA,0.0771
24,AGGCCTAA,-0.109
25,AACTCCCA,-0.113

row,Sequence,PBM E-score
1,ACACCTTG,0.0381
2,CCCCTGTC,-0.35
3,CCGTTTTC,0.182
4,ATAATATG,0.273
5,AGGTCCGG,-0.309
6,ACAGAACG,-0.0258
7,AAGTCCGC,-0.214
8,CTCCGCTA,-0.154
9,GCTACCGA,-0.175
10,CGCCTGCC,-0.2
11,AGGATCCA,-0.258
12,AAGCTCAT,-0.181
13,CCTCACCC,0.0853
14,GCTCTCAC,-0.261
15,GCAAATCA,0.115
16,ATATCGTC,0.272
17,AACCTCTT,0.0883
18,AACGCTAC,-0.0658
19,ACGCTGCA,-0.118
20,CCGAGAAC,0.0646
21,GACGAAAC,0.199
22,ACATTCCC,-0.0534
23,AGTGTGGA,-0.0626
24,ATTCGACG,0.145
25,ATACCCAC,-0.183

row,Sequence,PBM E-score
1,TATTCAAA,0.162
2,AGGTTTGC,0.0906
3,ACTATGGC,-0.142
4,GGTGCGCA,0.0142
5,ACAGATGT,-0.0693
6,GCGCGCGA,0.0433
7,ACTTGGAG,-0.136
8,AGTCGACT,0.079
9,AAGCGGTA,-0.138
10,ACGCGAGG,0.0628
11,CCTCTATC,-0.187
12,AGTGTCAT,0.276
13,AAGATAAA,0.303
14,GCTTCACC,-0.143
15,CTCATCAG,0.167
16,AGGACCGA,-0.156
17,CAGCGTGA,0.0151
18,AGGATTTA,0.0361
19,ATGTTTAG,0.146
20,TCTCCCAA,0.015
21,CCACCGCA,-0.227
22,TACATTCA,0.0794
23,TACAGACA,0.174
24,GGTTTTAC,-0.184
25,CCTTCCGA,-0.149

row,Sequence,PBM E-score
1,TGACGACA,0.476
2,CCCGCGCA,-0.172
3,ACGCAAAA,0.191
4,CCCCTACA,-0.307
5,AGTTTCAT,0.132
6,GCAGCATA,-0.133
7,ATCCTCAG,-0.0631
8,CGCCTCGA,0.0753
9,AACAAAGC,0.249
10,ATCTTGTG,0.00381
11,AAGGAAGT,0.0426
12,CATAACCG,-0.0921
13,CCCCGGCC,-0.326
14,CAAATTTA,0.221
15,CATGCGAC,-0.0464
16,ACTCGTCC,-0.094
17,GAGCACAA,-0.0554
18,CCGCCGCC,-0.0332
19,GCAAGCAA,0.0462
20,AATTGGAG,-0.152
21,CTTCGAAG,-0.21
22,GATCGTGC,0.0187
23,GAAAAGCA,-0.0869
24,CACCAGAC,0.0878
25,AACGGTAG,-0.183

row,Sequence,PBM E-score
1,GCACTGGC,-0.193
2,ATGCTTAC,0.047
3,AGTATAAC,-0.0732
4,CGGAGTCA,-0.0501
5,CAGGGCCG,-0.137
6,ATTGCTGC,0.0873
7,CAACCCTC,-0.27
8,GGTTAACA,0.16
9,CCCGGCTA,-0.179
10,CTATTAAA,0.192
11,CCTGGCAC,-0.255
12,AATTAGTG,0.241
13,GAATCCCA,-0.0246
14,TCGTTCAA,0.0239
15,TATCCCGA,0.00184
16,CAGGTCTC,-0.254
17,CAAAAAGC,0.132
18,CGCGCGGC,0.378
19,ATCTTAAC,0.267
20,ATTGTCCA,0.0668
21,AGGTTTAG,-0.0746
22,AACAATTC,0.17
23,AGCATTCG,-0.105
24,ATCATAAC,0.239
25,GGATCTTA,-0.0569

row,Sequence,PBM E-score
1,CTAGAAGC,-0.191
2,CCAGTAGA,-0.112
3,ACAGATTA,-0.0146
4,AGGATGCC,0.0165
5,AGTAGAAC,-0.0674
6,ACCTTAGA,0.0287
7,AGAAGCTG,-0.0818
8,ATCGATTA,0.143
9,GCACTACA,-0.107
10,ACGTATCT,0.142
11,CCAATGCC,-0.183
12,AATGTTGG,0.114
13,GAAACCGC,0.0497
14,ATTTAACG,0.184
15,AAGGGCCT,-0.251
16,CGTAGCCC,-0.203
17,GAGCGTCC,-0.225
18,AATGGACG,0.154
19,AGAGTCGC,-0.036
20,ACTCCTAG,-0.202
21,ATGACACC,0.228
22,TCGGAACA,0.00799
